Screen size: about 340,000 compounds; about 12,000 (3.5%) were called active. This list was built around the results that the source calls inconclusive (neither active nor inactive); the mix of calls is not that of the screen. Calls follow the shape of the dose curve; as a rule, active = well fitted inhibition curve with a large enough effect; inconclusive = small, poorly fitted or top-dose-only effect, or another doubt; inactive = no such curve, though single readings can be large or run the other way. Potencies of inconclusive entries are left out as doubtful fits.
Assay: qHTS Assay for Inhibitors of Hepatitis C Virus (HCV)
Details: Huh7.5.1 HCVcc-Cre (HCVcc is cell-culture hepatitis C virus) infection, luciferase reporter, 44 h; activity change, negative = inhibition: at 41.8 µM (top of the series)
Summary of the method: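 Seed cells (1,000/well) for 4 h; treat with compound and infect with HCVcc-Cre, moi about 0.5. Incubate 44 h, then detect luciferase activity.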
% is scaled to controls: 0 for no effect and ±100 for the full control effect; potency is read from the fitted curve at half-maximal effect; tags tell the direction and shape of the fitted curve.

Row | SMILES | Potency | activity change, negative = inhibition
1 | COC(=O)c1ccccc1NC(=O)CN(C1CCCCC1)S(C)(=O)=O | inconclusive [inhibitor, single point] | –
2 | COc1ccc(NC(=S)Nc2cccc(C(F)(F)F)c2)c(C)c1 | – | inactive: 13.2%
3 | Cc1n[nH]c(C)c1S(=O)(=O)Nc1ccc2c(c1)OCCO2 | inconclusive [inhibitor, partial curve] | –
4 | O=S(=O)(NCc1ccncc1)c1ccc(S(=O)(=O)NCC2CCCO2)cc1 (stereo not drawn) | active: 12.6 µM | –
5 | O=c1c2ccccc2nc(CSc2ncnc3nc[nH]c23)n1-c1cccc(C(F)(F)F)c1 | – | inactive: -13.3%
6 | COc1ccc(N(CC(=O)Nc2ccc3c(c2)OCCO3)S(=O)(=O)c2c(C)noc2C)cc1 | inconclusive [inhibitor, single point] | –
7 | COc1cc(NC(=O)CSc2ccc(-c3ccco3)nn2)cc(OC)c1 | inconclusive [inhibitor, single point] | –
8 | O=C(Nc1nc2c(s1)CCc1ccccc1-2)c1cccs1 | inconclusive [inhibitor, partial curve] | –
9 | CCCC1CC(C)(/C(C)=N\NC(N)=S)OC1=O (stereo not drawn) | – | inactive: 6.9%
10 | COc1ccc(CNC(=O)CN2CCN(c3cccc(C)c3C)CC2)cc1 | active: 3.16 µM | –
11 | CCOCCOC(=O)c1[nH]c2c(c1C)C(=O)CC(c1ccc(OC)c(OC)c1)C2 (stereo not drawn) | inconclusive [inhibitor, single point] | –
12 | CCCCN(C)S(=O)(=O)c1ccc(C(=O)Nc2nnc(CSC)o2)cc1 | inconclusive [inhibitor, single point] | –
13 | Cc1ccccc1NS(=O)(=O)c1cc(C(=O)NCCC2=CCCCC2)ccc1C | inconclusive [inhibitor, partial curve] | –
14 | COc1cccc(-c2nc(-c3ccc(NC(=O)c4cccs4)cc3)no2)c1 | inconclusive [inhibitor, full curve] | –
15 | S=C(Nc1ccc(Oc2ccccc2)cc1)NC1CCCCC1 | inconclusive [inhibitor, partial curve] | –
16 | O=S(=O)(Nc1cccc(C(F)(F)F)c1)c1cnc[nH]1 | – | inactive: 8.01%
17 | Cn1c(=O)c(C(=O)N2CCc3ccccc32)cc2cccnc21 | – | inactive: 12.2%
18 | COc1ccc(N2CC(C(=O)Nc3nnc(SCC(=O)N4CCOCC4)s3)CC2=O)cc1 (stereo not drawn) | – | inactive: -1.87%
19 | N#Cc1ccccc1NC(=O)Nc1cccs1 | – | inactive: 13%
20 | N#Cc1ccccc1NC(=O)COC(=O)CN1C(=O)C2CCCCC2C1=O (stereo not drawn) | inconclusive [inhibitor, single point] | –
21 | COc1cccc2oc3cc(C#CC4(O)CCCCC4)ccc3c(=O)c12 | inconclusive [inhibitor, single point] | –
22 | COc1cc(/C=N/Nc2nncc3ccccc23)cc(OC)c1OC | inconclusive [inhibitor, full curve] | –
23 | CC(OC(=O)c1cccs1)C(=O)NCc1ccccc1 (stereo not drawn) | – | inactive: 12.7%
24 | C/C(=N/NC(=O)c1cc(C2CC2)[nH]n1)c1cccs1 | – | inactive: -10.6%
25 | COc1ccc(-c2nc3scc(-c4ccccc4)n3n2)cc1 | inconclusive [inhibitor, partial curve] | –

Row | SMILES | Potency | activity change, negative = inhibition
26 | CCN(CC)c1ccc(C=C2C(=O)NC(=S)NC2=O)cc1 | inconclusive [inhibitor, single point] | –
27 | COC(=O)c1c(NC(NC(=O)C(C)C)C(Cl)(Cl)Cl)sc2c1CCC2 (stereo not drawn) | inconclusive [inhibitor, single point] | –
28 | COc1cc2c(cc1OC)C(C)N(C(=O)/C=C/c1cc(OC)c(OC)c(OC)c1)CC2 (stereo not drawn) | inconclusive [inhibitor, full curve] | –
29 | CN(c1ccc(C(=O)N2CCN(c3ccccc3F)CC2)cc1)S(=O)(=O)c1ccccc1 | inconclusive [inhibitor, single point] | –
30 | N/C(=N\OC(=O)c1ccco1)c1ccc(Cl)cc1 | – | inactive: 18.8%
31 | Cc1sc(NC(=O)c2ccccc2F)c(CN2CCCCC2)c1C | inconclusive [inhibitor, partial curve] | –
32 | COc1ccc(NC(=O)Cn2nnc(C(=O)NCCc3ccc(OC)c(OC)c3)c2N)cc1 | inconclusive [inhibitor, full curve, poor fit] | –
33 | O=C(NC(=S)Nc1ccc2c(c1)OCCO2)c1ccco1 | – | inactive: -7.03%
34 | O=C(NCc1nc2ccccc2[nH]1)C1=C[C@@H](c2ccc(C(F)(F)F)cc2)C[C@@H](OCc2ccc(CO)cc2)O1 | inconclusive [inhibitor, single point] | –
35 | Cc1cc(NC(=O)CSc2nnc(C)c(=O)n2N)no1 | – | inactive: -9.46%
36 | O=C(COC(=O)/C=C/c1ccc(F)cc1)NC1CCCC1 | – | inactive: 9.06%
37 | O=C(Nc1cccc(S(=O)(=O)N2CCCCC2)c1)c1ccc([N+](=O)[O-])o1 | inconclusive [inhibitor, single point] | –
38 | O=C(Nc1ccc(Cl)cc1Cl)c1cccc(N2C(=O)C=CC2=O)c1 | – | inactive: -8.19%
39 | CCOC(=O)c1c(NC(=O)CC2SC(N)=NC2=O)sc2c1CCC(C)C2 (stereo not drawn) | inconclusive [inhibitor, partial curve] | –
40 | Cc1ccccc1N1C(=O)CC(Sc2nnc(-c3ccccc3)o2)C1=O (stereo not drawn) | inconclusive [inhibitor, single point] | –
41 | CC(C)CN(C(=O)CCC(=O)OCC(=O)c1ccc(F)c(F)c1)c1c(N)n(CC(C)C)c(=O)[nH]c1=O | – | inactive: 10.8%
42 | N#Cc1cc2c(nc1SCc1cccnc1)CCCC2 | inconclusive [inhibitor, single point] | –
43 | CCN(CC(O)CON=C1c2ccccc2-c2ccccc21)S(=O)(=O)c1ccc(Cl)cc1 (stereo not drawn) | active: 10 µM | –
44 | OCCN1CCN(CC/C=C2/c3ccccc3CSc3ccccc32)CC1 | inconclusive [inhibitor, partial curve] | –
45 | c1ccc(-c2noc(-c3ccccc3-c3ccccc3)n2)cc1 | – | inactive: -0.435%
46 | CC1CCc2c(sc(NS(=O)(=O)c3ccccc3)c2C(=O)OC(C)C)C1 (stereo not drawn) | inconclusive [inhibitor, full curve, poor fit] | –
47 | Cc1cc(C)nc(SCCn2c(N(C)Cc3ccccc3)nc3c2c(=O)n(C)c(=O)n3C)n1 | – | inactive: -17%
48 | Cc1cc(-c2nn(C)c(=O)c3ccccc23)ccc1CNC(=O)NC1CCCCC1 | inconclusive [inhibitor, single point] | –
49 | Cc1nc2ccccc2c2oc(C(=O)NC3CC3)cc12 | – | inactive: -28.9%
50 | CCOC(=O)c1sc(-c2ccccn2)nc1C | – | inactive: 19.4%

Row | SMILES | Potency | activity change, negative = inhibition
51 | O=C(Cc1ccc(S(=O)(=O)N2CCCC2)s1)Nc1cccc([N+](=O)[O-])c1 | inconclusive [inhibitor, single point] | –
52 | CCOc1ncccc1C(=O)N1CCN(c2cccc(C)c2C)CC1 | – | inconclusive: -64.2% [inhibitor]
53 | O=C(N/N=C/c1cccc(O)c1)c1cc(-c2ccccc2)nc2ccccc12 | – | inactive: -7.47%
54 | CCOc1ccc(S(=O)(=O)N2CCN(c3ccc(C)cc3C)CC2)cc1 | inconclusive [inhibitor, single point] | –
55 | COc1ccc(-c2csc3nc(C)n(-n4cccc4)c(=O)c23)cc1 | inconclusive [inhibitor, single point] | –
56 | CC(C)c1ccc(C(C)NC(=S)NC2CCCCC2)cc1 (stereo not drawn) | active: 11.2 µM | –
57 | Cc1cccc(NC(=O)CCc2ccc(C)o2)c1 | – | inactive: -17.8%
58 | CCOc1cc2c(cc1OCC)C(c1ccccc1)N(c1ccccc1)C(=O)C2 (stereo not drawn) | inconclusive [inhibitor, partial curve, poor fit] | –
59 | O=C(Nc1cccc([N+](=O)[O-])c1)NC1CCCCCCC1 | inconclusive [inhibitor, single point] | –
60 | Cc1noc(C)c1S(=O)(=O)N1CCCC1C(=O)NC(C)(C)C (stereo not drawn) | inconclusive [inhibitor, single point] | –
61 | Cc1nn(CC(=O)Nc2ccc3c(c2)nc2n3CCN(C3CCCCC3)C2)c(=O)c2ccccc12 | inconclusive [inhibitor, single point] | –
62 | O=C(Nc1nc(-c2ccccc2)cs1)NC1CCCCC1 | inconclusive [inhibitor, partial curve] | –
63 | COc1ccc(S(=O)(=O)N2CCOCC2)cc1NC(=O)c1ccc(Cl)cc1 | – | inactive: 65.3%
64 | COc1cc(NC(=O)c2cnc(NCc3ccccc3)nc2C)cc(OC)c1OC | active: 3.55 µM | –
65 | OCC[C@H]1C[C@@H](O)[C@H](O)[C@]2(CCc3ccccc3CO2)O1 | – | inactive: -3.27%
66 | O=C(COC(=O)CNC(=O)c1ccc(Cl)cc1)Nc1cccc(S(=O)(=O)N2CCCC2)c1 | inconclusive [inhibitor, single point] | –
67 | COCCNC(=S)N(CCc1c(C)[nH]c2ccc(C)cc12)Cc1cc(OC)c(OC)c(OC)c1 | inconclusive [inhibitor, partial curve] | –
68 | CN1C(=O)/C(=N\OC(=O)c2cccc3ccccc23)c2ccccc21 | inconclusive [inhibitor, single point] | –
69 | C=C1CCN(C(C(=O)OC)C(C)C)S(=O)(=O)c2ccc(F)cc21 (stereo not drawn) | inconclusive [inhibitor, single point] | –
70 | CC(C)[C@H](NC(=O)NC1CCCC1)C(=O)O | – | inactive: 3.79%
71 | Cc1cccc(/C=N/NC(=O)c2cccc(NC(=O)c3ccccc3)c2)n1 | – | inactive: -8.13%
72 | CC(C)C(c1nnnn1Cc1cccs1)N1CCN(C2CCCC2)CC1 (stereo not drawn) | – | inactive: 3.51%
73 | COc1c(O)cc2c(c1O)[C@@H]1OC(CO)C(O)C(O)[C@H]1OC2=O (stereo partly drawn) | inconclusive [inhibitor, single point] | –

Reference: PubChem BioAssay AID651820 (National Center for Advancing Translational Sciences (NCATS), 2012)
